Out of some 91,000 compounds screened, about 290 (0.32%) were called active. Inconclusive results, whose numbers are uncertain, are shown with a selection of clear calls. Calls follow the shape of the dose curve; as a rule, active = well fitted inhibition curve with a large enough effect; inconclusive = small, poorly fitted or top-dose-only effect; inactive = no such curve, though single readings can be large or run the other way. Where the call is inconclusive, the potency comes from a doubtful curve fit.
What follows are compounds tested against Single-stranded DNA cytosine deaminase (Homo sapiens) (UniProt Q9GZX7) (assay: Primary qHTS assay for inhibitors of Activation Induced Cytidine Deaminase (AID): AID signal). Details: AID deamination FRET fluorescence, UDG-coupled, 4 h; series mostly up to 115 µM.
Sequence of UniProt Q9GZX7 (Q9GZX7 whole entry, looked up): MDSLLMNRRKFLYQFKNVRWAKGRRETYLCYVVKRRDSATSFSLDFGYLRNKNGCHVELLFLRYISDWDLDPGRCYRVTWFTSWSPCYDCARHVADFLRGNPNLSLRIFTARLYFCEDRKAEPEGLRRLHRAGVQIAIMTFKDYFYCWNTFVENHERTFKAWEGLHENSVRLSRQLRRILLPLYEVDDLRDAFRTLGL
For `O=C1NCN(c2ccccc2)C12CCN(CCCC(c1ccc(F)cc1)c1ccc(F)cc1)CC2`, the Potency was inconclusive: 50.1 µM [inhibitor, partial curve]. For `COc1cc(OC)c(OC)cc1/C=C/C(=O)c1ccc(OC(F)F)c(OC)c1`, the Potency was “inactive”. In the case of `COc1cc(OC)cc(N2C(=O)N(Cc3ccc(C(C)(C)C)cc3)c3ccccc3S2(=O)=O)c1`, the Potency is reported as inconclusive: 17.8 µM [inhibitor, full curve, poor fit]. With `CCCCCC1CCC(C2CCC(C(=O)O)CC2)CC1` (centres undefined) the Potency was inconclusive: 79.4 µM [inhibitor, partial curve, poor fit]. With `O=C(CCSCc1cccc(Cl)c1)N1CCN(c2ccc(Cl)cc2)CC1` the Potency was inconclusive: 28.2 µM [inhibitor, partial curve, poor fit]. In the case of `O=S(=O)(c1ccc(-c2csc(NC3CCCC3)n2)cc1)N1CCCC1`, the Potency is reported as “inactive”. With `CC(O)c1ccc(-c2ccc(CNc3nnnn3C)o2)cc1` (centres undefined) the Potency was “inactive”. For `C1CCC(NCC2CCN(C3CC3)C2)C1` (centres undefined), the Potency was “inactive”. In the case of `Cc1cc2nc(-c3ccc(NC(=O)c4cc5ccccc5o4)cc3)oc2cc1C`, the Potency is reported as inconclusive: 39.8 µM [inhibitor, single point]. `Cc1ccc(C(C)C)c(OCCSc2nc3ccccc3n2CC(O)CO)c1` (centres undefined) was tested, and the Potency was inconclusive: 20 µM [inhibitor, full curve, poor fit]. For `COc1ccccc1Cc1nc2ccccc2nc1SCC(=O)N1CCN(c2ccccc2)CC1`, the Potency was inconclusive: 20 µM [inhibitor, partial curve, poor fit]. `CCc1ccc(C(=O)c2cn(Cc3ccc(F)cc3)c3cc(OC)c(OC)cc3c2=O)cc1` was tested, and the Potency was active: 35.5 µM. With `COc1ccc(CCNC(=O)CCn2c(=O)c3ccccc3n(Cc3ccccc3)c2=O)cc1OC` the Potency was inconclusive: 17.8 µM [inhibitor, partial curve, poor fit]. For `Cc1cc(Nc2ccc(C(=O)O)c(O)c2)n2ncnc2n1`, the Potency was “inactive”. `C#CCN1C(=O)S/C(=C/c2cn(CC(=O)O)c3ccccc23)C1=O` was tested, and the Potency was “inactive”. `COCC(=O)N1CCN(c2oc(-c3ccccc3C)nc2S(=O)(=O)c2ccc(C)cc2)CC1` was tested, and the Potency was inconclusive: 31.6 µM [inhibitor, partial curve, poor fit]. With `N#Cc1c(N)sc2c1-c1ccccc1CC2` the Potency was inconclusive: 89.1 µM [inhibitor, single point]. For `COc1ccc(OC)c2sc(N(Cc3cccnc3)C(=O)c3ccco3)nc12`, the Potency was inconclusive: 35.5 µM [inhibitor, partial curve, poor fit]. With `COc1ccc(Nc2oc(-c3ccc(COc4ccccc4C)o3)nc2C#N)cc1` the Potency was inconclusive: 14.1 µM [inhibitor, full curve, poor fit].

Reference: PubChem BioAssay AID1347428 (National Center for Advancing Translational Sciences (NCATS), 2020)
Also: nearly all actives have a fitted effect of over 25% in size.
Potency is read from the fitted curve at half-maximal effect; tags tell the direction and shape of the fitted curve.
